About 930 (0.24%) of roughly 390,000 compounds were called active. The shares of active, inactive and inconclusive entries below differ from those in the screen. The call rests on the fitted dose curve; in most records, active means well fitted activation curve with a large enough effect; inconclusive means small, poorly fitted or top-dose-only effect; inactive means no such curve, though single readings can be large or run the other way. A potency beside an inconclusive call is a rough fit, not a confirmed value.
Assay: qHTS for Suppressors of FUS Proteinopathy: Primary screen using FUS-linked yeast assay; further: nearly all actives have a fitted effect of over 55% in size;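 on growth rescue (activation): plate controls were DMSO vehicle for no effect and reference control for full effect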
Details: S. cerevisiae FUS-expressing, OD600, 24 h; Potency: growth rescue; growth rescue (activation): at 76.6 µM (top of the series)
Method in brief: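 FUS-expressing yeast, raffinose-pregrown, induced in 2% galactose minimal medium at OD 0.005; compounds in a dilution series, 24hr at 30C. Growth restoration read as absorbance at 600 nm. CP55940 positive control, DMSO negative.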
Potency means the concentration at half of the fitted maximal effect; tags describe the fitted curve by direction and shape.

| SMILES | Potency | growth rescue (activation) |
| --- | --- | --- |
| COc1cccc(NC(=O)CN2C(=O)CSc3ccc(S(=O)(=O)N4CCCC4)cc32)c1 | inconclusive: 28.2 µM [activator, single point] | – |
| Cc1ccc2c(CC(=O)Nc3ccc(S(=O)(=O)N4CCCCC4C)cc3)coc2c1 (configuration not stated) | inconclusive: 28.2 µM [activator, single point] | – |
| COc1ccc2sc(-c3ccccc3OC)c(C#Cc3cncn3C)c2c1 | inconclusive: 28.2 µM [activator, single point] | – |
| CCOC(=O)C1=C(C)N(CCCCCC(=O)O)C(=O)NC1c1ccccc1OS(=O)(=O)c1ccc(C)cc1 (configuration not stated) | inconclusive: 28.2 µM [activator, single point] | – |
| Cc1cc(C)c2nc(N3CCC(C(=O)N4CCN(C(=O)c5ccco5)CC4)CC3)sc2c1 | inconclusive: 22.4 µM [activator, partial curve] | – |
| COc1ccc(S(=O)(=O)N(C)C[C@H]2Oc3ccc(NC(=O)Nc4ccc5c(c4)OCO5)cc3C(=O)N([C@H](C)CO)C[C@@H]2C)cc1 | inconclusive: 22.4 µM [activator, single point] | – |
| CCCCCCCCN1C(=O)[C@H](CC(=O)N2CCN(C(=O)C3CC3)CC2)C[C@@]2(C(=O)OC)CCCCC=C12 | inconclusive: 12.6 µM [activator, partial curve, poor fit] | – |
| CC(C)(C)c1ccc(-c2nc(C#N)c(N3CCC(C(N)=O)CC3)o2)cc1 | inconclusive: 50.1 µM [activator, single point] | – |
| CCCCn1c(SCc2ccc(C(=O)OC)o2)nc2cc(S(N)(=O)=O)ccc21 | inconclusive: 8.91 µM [activator, full curve] | – |
| COC(=O)c1c(CSc2cccc(C)c2)noc1C(=O)NCc1ccco1 | inconclusive: 25.1 µM [activator, partial curve, poor fit] | – |
| CCCCCOC(=O)c1ccc(NC(=O)c2ccco2)cc1 | inconclusive: 39.8 µM [activator, single point] | – |
| COc1ccc(C(C)=O)cc1CC1(C)C(=O)Nc2ccc(-c3ccccc3OC)cc21 (configuration not stated) | inconclusive: 28.2 µM [activator, partial curve, poor fit] | – |
| Cc1ccc(NC(=O)CSc2ncc(S(=O)(=O)c3ccc(C(C)C)cc3)c(=O)[nH]2)cc1C | inconclusive: 3.98 µM [activator, single point] | – |
| C=CCn1c(SCc2c(Cl)cccc2Cl)nnc1-c1cccc(C)c1 | inconclusive: 20 µM [activator, single point] | – |
| CCC(c1nnnn1CCOC)N1CCN(c2cccc(C(F)(F)F)c2)CC1 (configuration not stated) | inconclusive: 8.91 µM [activator, partial curve] | – |
| Cc1cc(Nc2cccc(Cl)c2)c2ccccc2n1 | – | inactive: -18.9% |
| COc1ccc(NC(=O)C2Cc3c(-c4ccccc4Oc4ccccc4)ccnc3O2)cc1OC (configuration not stated) | inconclusive: 25.1 µM [activator, single point] | – |
| CC1CCN(c2ccc(NC(=S)NC(=O)c3ccc(-c4cccc([N+](=O)[O-])c4)o3)cc2)CC1 | inconclusive: 2.24 µM [activator, partial curve, poor fit] | – |
| O=C(COC(=O)c1c2ccccc2cc2ccccc12)Nc1ncc(C(F)(F)F)cc1Cl | – | inactive: 16.3% |

| SMILES | Potency | growth rescue (activation) |
| --- | --- | --- |
| COc1ccc(CNC(=O)CCC2N=C3c4ccccc4N=C(SCc4cccc(F)c4)N3C2=O)cc1 (configuration not stated) | inconclusive: 22.4 µM [activator, partial curve, poor fit] | – |
| Cc1nc2cc(C(=O)OCC(=O)Nc3ccc(C#N)cc3)ccc2n1-c1ccccc1 | inconclusive: 50.1 µM [activator, single point] | – |
| CC(C)(C)NC(=O)C(c1cccc2ccccc12)n1c(=O)c(-c2cc3ccccc3[nH]2)nc2ccccc21 (configuration not stated) | inconclusive: 31.6 µM [activator, single point] | – |
| COc1cccc(N2CCN(C(=O)CCCn3c(=O)[nH]c4ccc(Br)cc4c3=O)CC2)c1 | inconclusive: 35.5 µM [activator, single point] | – |
| COc1ccc(-c2onc(C)c2C)cc1S(=O)(=O)NCC(C)c1ccccc1 (configuration not stated) | inconclusive: 50.1 µM [activator, single point] | – |
| CCOC(=O)N1CCN(S(=O)(=O)c2ccc(C(=O)Nc3sc4c(c3C(N)=O)CC(C)(C)NC4(C)C)cc2)CC1 | inconclusive: 14.1 µM [activator, partial curve] | – |
| Cc1ccc(C)c(N2CCN(C(=O)CCCN3C(=S)NC(C)(C)CC3C)CC2)c1 (configuration not stated) | inconclusive: 20 µM [activator, partial curve, poor fit] | – |
| O=C(Nc1cccnc1)c1ccc(Oc2ccccc2)cc1 | – | inconclusive: 63.7% [activator] |
| Cc1ccc(S(=O)(=O)N2CC3C(=O)C[C@@H](c4ccccc4)N(S(=O)(=O)c4cccc(Cl)c4)C3CC2c2ccccc2)cc1 (some centres not stated) | inconclusive: 20 µM [activator, partial curve] | – |
| CC(C)N(C(=O)[C@H]1C[C@H](CC(=O)NCc2ccco2)C(=O)N2CCc3c([nH]c4cc(-c5ccco5)ccc34)[C@]12C)C(C)C | inconclusive: 25.1 µM [activator, partial curve, poor fit] | – |
| CC(C)(N[C@@H](Cc1ccccc1)C(=O)NCCCc1ccccc1)C(=O)NCc1ccccc1 | inconclusive: 14.1 µM [activator, partial curve] | – |
| CC(/C=N/n1c(-c2ccncc2)n[nH]c1=S)=C\c1ccco1 | inconclusive: 39.8 µM [activator, single point] | – |
| COc1ccc(C2C(C(C)=O)=C(O)C(=O)N2CCc2ccccc2)c(OC)c1 (configuration not stated) | inconclusive: 44.7 µM [activator, partial curve, poor fit] | – |
| CC1CCCC(NC(=O)COC(=O)c2cccs2)C1C (configuration not stated) | – | inactive: -4.36% |
| O=C(C1CCCCN1S(=O)(=O)c1ccccc1)N1CCN(C(c2ccccc2)c2ccccc2)CC1 (configuration not stated) | inconclusive: 39.8 µM [activator, partial curve, poor fit] | – |
| Cn1nccc1C(=O)N1CCC(Cc2ccccc2)CC1 | – | inactive: 8.38% |
| CON(C)S(=O)(=O)c1ccc2c(c1)NC(=O)C1CCCN21 (configuration not stated) | active: 28.2 µM | – |
| CCn1cnc2c1c(=O)n(CC(=O)N1CCc3ccccc31)c(=O)n2Cc1ccccc1 | inconclusive: 35.5 µM [activator, partial curve, poor fit] | – |
| Cc1cc(C)c2c(-n3cccc3)c(C(=O)NNS(=O)(=O)c3ccc(Br)cc3)sc2n1 | inconclusive: 50.1 µM [activator, single point] | – |

| SMILES | Potency | growth rescue (activation) |
| --- | --- | --- |
| COc1ccc(S(=O)(=O)N2CCCCCC2)cc1C(=O)N1CCN(c2ccccc2C)CC1 | inconclusive: 11.2 µM [activator, partial curve] | – |
| O=c1cc2c(nn1Cc1ccc(Cl)cc1)-c1ccccc1CC2 | inconclusive: 50.1 µM [activator, single point] | – |
| O=C1c2cccnc2C(=O)N1Cc1ccc(S(=O)(=O)N2CCOc3ccccc32)cc1 | inconclusive: 10 µM [activator, partial curve] | – |
| COC(=O)[C@H]1[C@H]2C[C@@H]3c4[nH]c5cc(OC)ccc5c4CCN3C[C@H]2C[C@@H](OC(=O)/C=C/c2cc(OC)c(OC)c(OC)c2)[C@@H]1OC | inconclusive: 25.1 µM [activator, partial curve, poor fit] | – |
| COC(=O)[C@@]12CCCCN1[C@H](c1ccc(-c3ccc(Cl)c(Cl)c3)c(OC)c1)[C@@H]1C(=O)N(C)C(=O)[C@@H]12 | inconclusive: 8.91 µM [activator, full curve] | – |
| COCOCCn1cc(CN2CCS(=O)(=O)N(Cc3ccc(-c4ccc(Cl)nc4)cc3)C(CC(C)C)C2=O)nn1 (configuration not stated) | inconclusive: 22.4 µM [activator, single point] | – |
| CSc1ccccc1NC(=O)CN(C)C(=O)CNC(=O)c1ccc(Oc2ccccc2)cc1 | inconclusive: 22.4 µM [activator, single point] | – |
| O=C(NCC(F)(F)F)c1cc2c(c(-c3cccc(-c4ccccc4F)c3)n1)[C@H](CCO)N(C(=O)CC1CC1)C2 | inconclusive: 22.4 µM [activator, single point] | – |
| O=c1c2cn[nH]c2[nH]c(=S)n1-c1ccccc1 | – | inactive: 2.81% |
| COc1ccc2[nH]c(C)c(C(=O)CN3CCN(C/C=C/c4ccccc4)CC3)c2c1 | – | inactive: 7.13% |
| CCCCCn1c(=O)[nH]c2cc(C(=O)NCc3ccc(Cl)cc3)ccc2c1=O | – | inactive: -41% |
| COc1ccccc1C(=O)NCCn1cc(SCc2ccc(C)cc2)c2ccccc21 | inconclusive: 28.2 µM [activator, single point] | – |
| COc1ccc(OC)c2sc(N3CCN(C(=O)c4ccc5c(c4)CCCC5)CC3)nc12 | inconclusive: 25.1 µM [activator, partial curve, poor fit] | – |
| CC1CCCC(NC(=O)CN2C(=O)NC(c3ccccc3)(c3ccccc3)C2=O)C1C (configuration not stated) | inconclusive: 35.5 µM [activator, single point] | – |
| c1ccc(-c2cnc(-c3ccccc3)nn2)cc1 | – | inactive: -29.8% |
| CC(C)(C)NS(=O)(=O)c1ccc(OCC(=O)NCC2CCCO2)cc1 (configuration not stated) | – | inactive: 11.8% |
| CCC/C=C/c1ccc(CN2C(CC(C)C)C(=O)N(Cc3cn(CCC4OCCCO4)nn3)CCS2(=O)=O)cc1 (configuration not stated) | inconclusive: 25.1 µM [activator, single point] | – |
| COc1ccc(C2CC(c3ccccc3)=NN2c2ccc(S(N)(=O)=O)cc2)cc1 (configuration not stated) | inconclusive: 50.1 µM [activator, partial curve, poor fit] | – |
| CCCCCCCCOc1ccc(C(=O)O)cc1 | – | inactive: -9.52% |

— PubChem BioAssay AID1347120 (National Center for Advancing Translational Sciences (NCATS), 2019)
